# Results published in the supplement of paper PMC3334620.
# The full ranking holds about 33,000 sequences; the median of “E-score (-0.5 to 0.5)” is about -0.053, and the highest 2% start at about 0.37. Some of the results follow.
# Target: Hap1 (UniProt P0CE41)
# Assay: PBM E-score (8-mer binding enrichment) (E-score (-0.5 to 0.5)); higher = stronger / more preferred TF binding; most listed sequences are background and not binding sites
# Settings: protein concentration: 200 nM; construct: GST-DNA-binding domain
# Summary of the method: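 Masliner-normalised scans of fluorescent anti-GST signal were the basis for scoring. That signal came from GST-tagged yeast transcription factors applied at about 100-200 nM to double-stranded universal all-10-mer Agilent arrays on fresh or once-stripped slides. Each ungapped eight-base word, pooled with its reverse complement, received an E-score from the Universal PBM Analysis Suite.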
# UniProt P0CE41, sequence (P0CE41 whole entry): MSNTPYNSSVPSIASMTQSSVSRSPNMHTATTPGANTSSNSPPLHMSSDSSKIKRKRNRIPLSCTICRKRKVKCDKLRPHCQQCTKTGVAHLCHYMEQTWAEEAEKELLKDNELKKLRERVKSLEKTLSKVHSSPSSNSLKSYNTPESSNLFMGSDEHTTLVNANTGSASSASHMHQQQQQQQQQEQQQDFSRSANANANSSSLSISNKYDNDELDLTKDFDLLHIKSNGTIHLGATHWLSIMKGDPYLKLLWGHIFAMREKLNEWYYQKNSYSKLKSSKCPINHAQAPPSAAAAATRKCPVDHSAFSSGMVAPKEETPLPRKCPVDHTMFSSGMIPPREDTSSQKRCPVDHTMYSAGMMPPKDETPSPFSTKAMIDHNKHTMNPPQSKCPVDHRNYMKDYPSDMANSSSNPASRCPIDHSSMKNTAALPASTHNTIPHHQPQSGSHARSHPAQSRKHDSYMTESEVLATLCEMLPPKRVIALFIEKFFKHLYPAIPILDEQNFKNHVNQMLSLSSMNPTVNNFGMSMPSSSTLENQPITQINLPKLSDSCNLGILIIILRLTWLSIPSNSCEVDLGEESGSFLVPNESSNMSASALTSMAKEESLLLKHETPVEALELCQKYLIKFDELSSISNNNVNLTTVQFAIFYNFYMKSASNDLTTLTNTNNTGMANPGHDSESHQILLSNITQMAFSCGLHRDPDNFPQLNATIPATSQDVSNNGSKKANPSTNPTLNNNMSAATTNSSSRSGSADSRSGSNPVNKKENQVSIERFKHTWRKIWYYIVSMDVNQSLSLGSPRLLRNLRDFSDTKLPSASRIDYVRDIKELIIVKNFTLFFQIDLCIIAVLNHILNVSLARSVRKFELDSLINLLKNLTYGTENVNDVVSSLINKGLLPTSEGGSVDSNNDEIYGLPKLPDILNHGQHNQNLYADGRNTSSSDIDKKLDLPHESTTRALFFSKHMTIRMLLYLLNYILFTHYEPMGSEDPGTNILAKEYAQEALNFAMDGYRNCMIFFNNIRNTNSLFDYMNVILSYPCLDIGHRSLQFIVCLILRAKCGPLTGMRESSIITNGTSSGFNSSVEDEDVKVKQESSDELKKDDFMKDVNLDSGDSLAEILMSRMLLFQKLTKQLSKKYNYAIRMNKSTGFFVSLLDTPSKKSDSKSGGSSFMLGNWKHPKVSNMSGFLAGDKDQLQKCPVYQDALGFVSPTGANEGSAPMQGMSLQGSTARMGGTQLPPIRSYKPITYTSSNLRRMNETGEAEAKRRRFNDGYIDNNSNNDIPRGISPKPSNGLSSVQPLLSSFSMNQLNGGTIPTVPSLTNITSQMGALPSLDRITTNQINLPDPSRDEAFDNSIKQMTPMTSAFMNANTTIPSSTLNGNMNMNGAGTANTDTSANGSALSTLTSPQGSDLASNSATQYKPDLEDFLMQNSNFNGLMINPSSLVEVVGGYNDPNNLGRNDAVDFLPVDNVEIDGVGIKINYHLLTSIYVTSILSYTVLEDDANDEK
row,Sequence,PBM E-score
1,ATCCACCA,-0.215
2,CAAGAGCA,-0.164
3,CCACGCAA,-0.146
4,CTTGCTTA,-0.135
5,TACACCGA,0.287
6,AACCCGGT,0.365
7,ATATGCCA,-0.0262
8,GAAAAGGC,0.141
9,AACACATA,-0.211
10,GTGCCTGA,-0.191
11,TCAACAAA,-0.0582
12,CATAGTAG,-0.233
13,CTATGAGC,-0.251
14,AAGTCCCC,-0.0842
15,AACCCGGG,0.355
16,GAGGGTGA,-0.126
17,TAGCTAGA,-0.191
18,AAGTACGG,0.0925
19,CGGCACCG,0.34
20,AATGCCGC,0.295
21,CACGACTC,-0.0837
22,GAACAACC,0.184
23,CAATGCTC,-0.157
24,ATTGTAAG,-0.17
25,CAAACTTG,-0.117

row,Sequence,PBM E-score
1,GCAGTCGC,-0.261
2,ATAGGGGA,-0.116
3,GGCCGTGA,0.148
4,ATGAGGCA,-0.21
5,ATATGCGC,0.0604
6,ATATCATA,0.0408
7,GACGTTGC,0.0401
8,AGGTACCC,-0.28
9,CTTATAGC,-0.0598
10,CATCCAAC,-0.0274
11,AGACTGCC,-0.0881
12,CACCACCG,0.16
13,ACTAAGCT,-0.262
14,AGAAGCGG,0.0122
15,CCGTGGGC,0.291
16,AGCCAGTC,-0.124
17,AGTTTGAG,-0.0293
18,AGTATGAA,0.0714
19,CAGAGGGC,0.00727
20,ACTACAGG,-0.0138
21,ATGACGAA,-0.159
22,CTACCAGC,-0.319
23,ACTCGGAC,0.385
24,ACGGAATC,0.28
25,AAAAGTCG,-0.0425

row,Sequence,PBM E-score
1,GTGATTAA,0.0319
2,GATTCTAC,-0.0077
3,GCACGACA,-0.176
4,TCGAGAGA,-0.0617
5,GCAGCCAC,-0.0056
6,ATACTCCA,-0.15
7,ACCCTGTG,-0.188
8,CCCGGTTA,0.268
9,CGAACTCA,-0.00342
10,CAATCTCA,-0.165
11,CGGCCGCA,0.297
12,AAACCAGT,-0.276
13,AACTCCAT,0.139
14,GCGGTTCC,0.0594
15,AAACGCGT,0.0275
16,GATGTCGA,-0.0856
17,CTAAGCCC,0.142
18,AATATTTC,0.132
19,AGTTTGCG,-0.044
20,TAGGAGCA,-0.298
21,CTGCCCTA,-0.191
22,AAGAATGG,0.0742
23,CGATCGTA,-0.0164
24,AACTGGCG,-0.0139
25,CTACCTAG,-0.204

row,Sequence,PBM E-score
1,AAGGTAAT,-0.016
2,CGAGGGAC,-0.193
3,ATACGCTG,0.0262
4,ATTCTATA,0.0581
5,TCCTATCA,-0.0726
6,CATGGGCG,0.0306
7,CTAAGGTC,-0.243
8,GGACGAGA,0.241
9,CTACAAGC,-0.099
10,GGTAGCGA,-0.021
11,CTCGTTCC,0.0324
12,ACAAAATG,-0.0196
13,CGTCACAA,-0.0741
14,CGAGACCA,0.0818
15,ATTCGTAA,-0.14
16,GATACCGC,0.23
17,ATCATGTA,-0.282
18,CAGTTAGA,-0.152
19,GCCTGAGA,0.0572
20,AAGAACTC,-0.0344
21,ATGTCATG,-0.228
22,TATACACA,-0.256
23,GCAAGCAC,-0.244
24,ATGACACA,-0.107
25,CTTCCTCA,-0.237

row,Sequence,PBM E-score
1,AATTGATA,-0.165
2,ATGATCGC,0.209
3,CCCCTCTC,-0.0864
4,AGCGGGAA,0.207
5,CCTTAACC,-0.144
6,CGGATACA,0.385
7,AATTGACG,-0.113
8,GATTAGGC,0.0499
9,ACGATTAC,-0.164
10,CATGGCCA,-0.19
11,CCAGAGCA,-0.0247
12,AGATCCTG,-0.0691
13,CAGTACCA,-0.177
14,CCGCATCA,0.2
15,GTTACGCA,-0.0767
16,CAGTGGAA,-0.137
17,AGAAGTTC,-0.229
18,CTGCTTCC,0.0898
19,CTATACGC,-0.028
20,ATAATGGC,0.0861
21,GTCGAAAA,-0.0295
22,AATGCTCC,0.122
23,AGCCTGGG,-0.00831
24,CAACCTAG,-0.187
25,CAGTCCCA,-0.276

row,Sequence,PBM E-score
1,ATCCGGGG,0.399
2,TGGCGACA,-0.155
3,AATTAACA,-0.0987
4,TAAAACTA,-0.135
5,AAGGTGTA,-0.0687
6,CACTGCCA,-0.264
7,AAAGCATT,-0.164
8,CCATGCAA,0.0389
9,GCGACTAC,0.0144
10,ACAACTCC,0.13
11,ACTGGCTG,0.0393
12,GGGGGACC,-0.109
13,CGATCTAA,-0.0937
14,AACCCAGT,-0.0336
15,CAATGGTC,-0.186
16,CAAATCCG,0.344
17,AAAGGTTC,-0.127
18,TCAGTGCA,-0.0759
19,AAGGGAAG,-0.0953
20,CTTGGTCC,0.12
21,CACAACAG,-0.319
22,AGAATACG,0.00095
23,GAACACAC,-0.135
24,CAGCAGGA,-0.153
25,AACCGGGA,0.193

row,Sequence,PBM E-score
1,GCTTAACA,0.0307
2,CGGCCCCA,0.0542
3,ATCGAGCC,-0.0145
4,TCGGTGCA,0.291
5,TAGTGGAA,0.11
6,CTCACATA,-0.189
7,TGAAGGCA,-0.35
8,CATGCATA,-0.164
9,CGGCGATC,0.31
10,CCGGCAGA,0.254
11,GCGCCGGA,0.368
12,GACCAGGC,-0.266
13,ACGCTTAT,-0.157
14,AGATTAGC,-0.152
15,GTGCAGAA,-0.0502
16,AGAGACAG,-0.197
17,GAGTCCTA,-0.202
18,ATAGGGTA,-0.129
19,GCAGAGCA,-0.26
20,AACTCCAC,0.0468
21,AAGGTCAA,-0.194
22,CTTGCGAC,-0.0152
23,TAATTCCA,0.133
24,ATTTGGAA,-0.187
25,CTAGGATC,-0.0458

row,Sequence,PBM E-score
1,AGAATGAT,-0.0898
2,AAGTACTC,-0.147
3,CAATAGTA,-0.148
4,AAATCCAG,0.0422
5,GTTCGTAA,-0.078
6,GTTGTCCA,-0.223
7,AGCTGTGA,-0.188
8,CTTTAGTA,-0.168
9,TAGGTATA,-0.0795
10,AAATATGC,-0.0716
11,GAATGGAC,-0.116
12,CCGTATTA,0.159
13,AAATCCCA,-0.0185
14,CCAACCGC,0.153
15,GGTGGCTA,-0.148
16,TCCGCCCA,0.209
17,AAGATTAT,0.0146
18,CCGGGTCC,0.323
19,TAATACAA,-0.049
20,AATTTAGA,-0.0145
21,GATTATTA,0.0888
22,GTTGCAGA,-0.182
23,TTCTACAA,-0.169
24,TCCCTTAA,-0.119
25,CGCCTAGA,0.0566

row,Sequence,PBM E-score
1,CATAGGCA,-0.24
2,GGGAAGTA,0.0898
3,TCCCCGAA,0.335
4,GGTCCTAA,0.188
5,CCGCTGTA,0.02
6,CGCCCACG,0.13
7,ACGACTCA,-0.0362
8,CAATCGCA,-0.0861
9,GTCACTTA,0.0704
10,ATGGGCCG,0.209
11,TTAATTAA,-0.0765
12,GACGCATC,0.0595
13,ATTCGTCA,-0.151
14,ACCCTGAC,-0.121
15,GGATCTGA,-0.0297
16,AGTATCTA,-0.229
17,CCTTAGGC,-0.184
18,AGTGTGCG,-0.00284
19,ATGGTGTC,-0.209
20,ACGATTCC,0.0745
21,CAATGGGA,0.0526
22,ATGGTATC,-0.0144
23,GTTATTGA,-0.0768
24,GAAGAGCC,0.0682
25,AGTCCGTA,0.269

row,Sequence,PBM E-score
1,CCCCTATC,-0.0338
2,ACCGCACG,-0.0174
3,ACTCGCAC,0.0265
4,ATATAGTG,0.0257
5,CCCGTCGG,0.323
6,CAATTGCG,-0.09
7,GTTCACTA,0.00099
8,AATGTTCC,0.12
9,AGGTCATC,0.0639
10,GCCCCAAC,0.0345
11,ACAGCCTA,0.0258
12,ATCAACTG,0.0174
13,AAGAGGTC,-0.0848
14,GCCGTTAA,0.346
15,ACATAGCG,0.0823
16,CTTTGCAC,-0.237
17,CAGGAGAC,-0.0507
18,GCATCCTA,-0.103
19,TCAAGTAA,-0.286
20,CTTAAATC,0.114
21,GCGTTCAA,-0.207
22,ATAAGCCG,0.3
23,CTCGTTCA,-0.206
24,CCAGTTAC,-0.143
25,ATCCCAGG,-0.0222

row,Sequence,PBM E-score
1,CCTAAAAA,0.00566
2,TGGCAAAA,-0.153
3,ATTTGTGG,-0.0447
4,ACAATTAT,-0.0401
5,ACCAGACT,-0.396
6,ACGAAGTG,-0.135
7,AGCCTGCC,-0.0268
8,GGCGCCGA,0.313
9,AACGAACA,0.116
10,CAACGTCA,-0.165
11,TCCAAAAA,-0.146
12,GAGACCGA,0.302
13,GTAATGGA,-0.0964
14,GACCATGC,-0.087
15,AAGACTTC,-0.137
16,ACTCCTGG,-0.171
17,CCGATACG,0.42
18,CCGTCAGG,-0.042
19,CGTTGCCC,0.0882
20,GAATTGGA,-0.155
21,CCCCTAAG,-0.196
22,CACGTAGC,-0.152
23,CATGAACC,0.0749
24,TGACTCCA,-0.243
25,TTAATAAA,0.0578

row,Sequence,PBM E-score
1,CACGTTCG,0.0803
2,CTAGGAGA,-0.216
3,AACCGCGT,0.0872
4,ATACAAAC,0.0333
5,GTACTTAA,-0.072
6,CACAGGTC,-0.11
7,ATAGGCCG,0.203
8,CGCGTGGA,-0.079
9,CGTGGCAG,-0.0988
10,GTTAGGGA,-0.253
11,GTCAACCA,-0.311
12,ATGACGAC,-0.0583
13,ACTAAACA,-0.15
14,CGTCATTA,-0.0252
15,AACCAACA,-0.103
16,ATCATCCC,-0.00016
17,CGTTTATC,0.153
18,ATAGTGGG,0.12
19,ACCACGCG,-0.00309
20,AGTGGTGC,-0.137
21,AGGTGAGC,-0.13
22,ACCCCCTG,-0.177
23,GCCTGACC,0.145
24,GCCTAGGC,-0.182
25,CCTGGCTC,-0.16

row,Sequence,PBM E-score
1,ACGTCTAG,-0.181
2,AGTGACCG,0.117
3,ACTCACGG,0.169
4,ACCGTGGA,0.141
5,CAGTAAGA,-0.182
6,CCGACGAA,0.291
7,AGTCTCAG,-0.266
8,ATCTACTA,-0.0474
9,AAGCCATG,-0.0552
10,ATGTTAAC,-0.0143
11,ACTGTTTA,-0.249
12,AACATAAG,-0.00094
13,CACTCAGG,-0.2
14,AACCCACC,0.0785
15,AGCAGCTA,-0.212
16,GACACCGA,0.254
17,CCAATCGA,-0.034
18,GATACTTA,-0.0679
19,GATCCCCA,0.149
20,CGAATCTA,-0.0204
21,CCCTGTTC,-0.169
22,TGGCAGAA,-0.0128
23,CAACTGGG,-0.122
24,ATCTCGCG,0.0899
25,GAGCACAC,-0.175

row,Sequence,PBM E-score
1,GTTGCATA,-0.185
2,CTTCCAAG,-0.197
3,GCTGCCCC,-0.0982
4,ACCCATAA,0.194
5,AGGCATGG,-0.0848
6,CAGTTAAC,0.129
7,GCCCCCTA,-0.185
8,AGATCGAG,-0.0407
9,CGCCCGCA,0.189
10,CACGCTAA,-0.0232
11,AGTGCCTG,-0.0491
12,GGAAGTCA,0.0587
13,AGCATGCC,-0.131
14,GGGGTCAA,0.0491
15,AAACGAGA,-0.0201
16,AATGCTTA,-0.138
17,GTCGATCA,-0.19
18,GGTTTCAA,0.185
19,GCCCGGTA,0.38
